# According to article PMC12820563:
# The other results are listed elsewhere or left out. The list includes weakly bound sequences.
# Target: T1, MBP-FoxP3dN (UniProt Q99JB6)
# T1 sequence: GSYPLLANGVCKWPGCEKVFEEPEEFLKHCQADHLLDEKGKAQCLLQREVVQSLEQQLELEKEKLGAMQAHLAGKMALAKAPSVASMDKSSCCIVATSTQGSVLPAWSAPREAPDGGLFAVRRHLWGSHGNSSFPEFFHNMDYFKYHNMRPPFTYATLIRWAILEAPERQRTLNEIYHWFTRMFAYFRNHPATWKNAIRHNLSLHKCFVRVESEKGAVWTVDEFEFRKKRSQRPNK
# Experiment: PD-seq (MBP pull-down with sequencing)
# Conditions: 20 mM Tris-HCl pH 7.5, 100 mM NaCl, 1.5 mM MgCl2, 0.4 uM protein, 0.1 uM dsDNA library, 30 min, room temperature, amylose pull-down; high values mean tight binding; double strand, one strand shown
row,Sequence,binding signal (RPM ratio (pull-down/input))
1,GATGATTGTTCTCCCAGCTGATGAATTTTTTGGCTCGAGTAAACAAATTTTCCTAATCTTTCTGTTCAAGCGCCATCTAC,0.204
2,GATGATTGTTCTCCCAGCTGATGAATTAGGGGATTCGAGTAAACAAATTTTCCTAATCTTTCTGTTCAAGCGCCATCTAC,0.431
3,GATGATTGTTCTCCCAGCTGATGAATTGAACGTGTCGAGTAAACAAATTTTCCTAATCTTTCTGTTCAAGCGCCATCTAC,0.487
4,GATGATTGTTCTCCCAGCTGATGAATTCATTGAATCGAGTAAACAAATTTTCCTAATCTTTCTGTTCAAGCGCCATCTAC,0.267
5,GATGATTGTTCTCCCAGCTGATGAATTCACTTTATCGAGTAAACAAATTTTCCTAATCTTTCTGTTCAAGCGCCATCTAC,0.552
6,GATGATTGTTCTCCCAGCTGATGAATTTTGGTCATCGAGTAAACAAATTTTCCTAATCTTTCTGTTCAAGCGCCATCTAC,0.613
7,GATGATTGTTCTCCCAGCTGATGAATTTATTAGATCGAGTAAACAAATTTTCCTAATCTTTCTGTTCAAGCGCCATCTAC,0.562
8,GATGATTGTTCTCCCAGCTGATGAATTCGCATCATCGAGTAAACAAATTTTCCTAATCTTTCTGTTCAAGCGCCATCTAC,5.06
9,GATGATTGTTCTCCCAGCTGATGAATTCTCCGTATCGAGTAAACAAATTTTCCTAATCTTTCTGTTCAAGCGCCATCTAC,0.333
10,GATGATTGTTCTCCCAGCTGATGAATTTGAGCATTCGAGTAAACAAATTTTCCTAATCTTTCTGTTCAAGCGCCATCTAC,5.36
11,GATGATTGTTCTCCCAGCTGATGAATTTAACGCGTCGAGTAAACAAATTTTCCTAATCTTTCTGTTCAAGCGCCATCTAC,0.668
12,GATGATTGTTCTCCCAGCTGATGAATTTTGGTGTTCGAGTAAACAAATTTTCCTAATCTTTCTGTTCAAGCGCCATCTAC,1.57
13,GATGATTGTTCTCCCAGCTGATGAATTCTTTTTCTCGAGTAAACAAATTTTCCTAATCTTTCTGTTCAAGCGCCATCTAC,0.372
14,GATGATTGTTCTCCCAGCTGATGAATTCGTTTTCTCGAGTAAACAAATTTTCCTAATCTTTCTGTTCAAGCGCCATCTAC,3.3
15,GATGATTGTTCTCCCAGCTGATGAATTTTATCTATCGAGTAAACAAATTTTCCTAATCTTTCTGTTCAAGCGCCATCTAC,0.962
16,GATGATTGTTCTCCCAGCTGATGAATTGTGGACCTCGAGTAAACAAATTTTCCTAATCTTTCTGTTCAAGCGCCATCTAC,0.571
17,GATGATTGTTCTCCCAGCTGATGAATTGGTCAACTCGAGTAAACAAATTTTCCTAATCTTTCTGTTCAAGCGCCATCTAC,0.465
18,GATGATTGTTCTCCCAGCTGATGAATTGACTGGATCGAGTAAACAAATTTTCCTAATCTTTCTGTTCAAGCGCCATCTAC,0.214
19,GATGATTGTTCTCCCAGCTGATGAATTATTGCTTTCGAGTAAACAAATTTTCCTAATCTTTCTGTTCAAGCGCCATCTAC,1.29
20,GATGATTGTTCTCCCAGCTGATGAATTCAAACGTTCGAGTAAACAAATTTTCCTAATCTTTCTGTTCAAGCGCCATCTAC,0.34
21,GATGATTGTTCTCCCAGCTGATGAATTCCTCCGATCGAGTAAACAAATTTTCCTAATCTTTCTGTTCAAGCGCCATCTAC,0.188

row,Sequence,binding signal (RPM ratio (pull-down/input))
1,GATGATTGTTCTCCCAGCTGATGAATTTAGACGCTCGAGTAAACAAATTTTCCTAATCTTTCTGTTCAAGCGCCATCTAC,0.561
2,GATGATTGTTCTCCCAGCTGATGAATTTTCGGCTTCGAGTAAACAAATTTTCCTAATCTTTCTGTTCAAGCGCCATCTAC,0.255
3,GATGATTGTTCTCCCAGCTGATGAATTGCAATAATCGAGTAAACAAATTTTCCTAATCTTTCTGTTCAAGCGCCATCTAC,1.91
4,GATGATTGTTCTCCCAGCTGATGAATTCCCCGGCTCGAGTAAACAAATTTTCCTAATCTTTCTGTTCAAGCGCCATCTAC,0.131
5,GATGATTGTTCTCCCAGCTGATGAATTCCTCTAATCGAGTAAACAAATTTTCCTAATCTTTCTGTTCAAGCGCCATCTAC,0.265
6,GATGATTGTTCTCCCAGCTGATGAATTTTAGTGCTCGAGTAAACAAATTTTCCTAATCTTTCTGTTCAAGCGCCATCTAC,0.557
7,GATGATTGTTCTCCCAGCTGATGAATTCATCTTATCGAGTAAACAAATTTTCCTAATCTTTCTGTTCAAGCGCCATCTAC,0.408
8,GATGATTGTTCTCCCAGCTGATGAATTCGTCCACTCGAGTAAACAAATTTTCCTAATCTTTCTGTTCAAGCGCCATCTAC,0.485
9,GATGATTGTTCTCCCAGCTGATGAATTTATCTGCTCGAGTAAACAAATTTTCCTAATCTTTCTGTTCAAGCGCCATCTAC,0.769
10,GATGATTGTTCTCCCAGCTGATGAATTAGCCTGTTCGAGTAAACAAATTTTCCTAATCTTTCTGTTCAAGCGCCATCTAC,0.655
11,GATGATTGTTCTCCCAGCTGATGAATTATGGCCATCGAGTAAACAAATTTTCCTAATCTTTCTGTTCAAGCGCCATCTAC,1.61
12,GATGATTGTTCTCCCAGCTGATGAATTCCGTTCTTCGAGTAAACAAATTTTCCTAATCTTTCTGTTCAAGCGCCATCTAC,0.554
13,GATGATTGTTCTCCCAGCTGATGAATTTTTTAGATCGAGTAAACAAATTTTCCTAATCTTTCTGTTCAAGCGCCATCTAC,0.177
14,GATGATTGTTCTCCCAGCTGATGAATTTTAGGCCTCGAGTAAACAAATTTTCCTAATCTTTCTGTTCAAGCGCCATCTAC,0.444
15,GATGATTGTTCTCCCAGCTGATGAATTAAGAGGATCGAGTAAACAAATTTTCCTAATCTTTCTGTTCAAGCGCCATCTAC,0.247
16,GATGATTGTTCTCCCAGCTGATGAATTGGCCGCATCGAGTAAACAAATTTTCCTAATCTTTCTGTTCAAGCGCCATCTAC,0.96
17,GATGATTGTTCTCCCAGCTGATGAATTCTAAGGCTCGAGTAAACAAATTTTCCTAATCTTTCTGTTCAAGCGCCATCTAC,0.248
18,GATGATTGTTCTCCCAGCTGATGAATTGATTCGTTCGAGTAAACAAATTTTCCTAATCTTTCTGTTCAAGCGCCATCTAC,0.437
19,GATGATTGTTCTCCCAGCTGATGAATTAGGAACCTCGAGTAAACAAATTTTCCTAATCTTTCTGTTCAAGCGCCATCTAC,0.28
20,GATGATTGTTCTCCCAGCTGATGAATTGCCCCCTTCGAGTAAACAAATTTTCCTAATCTTTCTGTTCAAGCGCCATCTAC,0.413
21,GATGATTGTTCTCCCAGCTGATGAATTCCTGCGCTCGAGTAAACAAATTTTCCTAATCTTTCTGTTCAAGCGCCATCTAC,0.4

row,Sequence,binding signal (RPM ratio (pull-down/input))
1,GATGATTGTTCTCCCAGCTGATGAATTGGTCGCTTCGAGTAAACAAATTTTCCTAATCTTTCTGTTCAAGCGCCATCTAC,0.51
2,GATGATTGTTCTCCCAGCTGATGAATTGTCGTTATCGAGTAAACAAATTTTCCTAATCTTTCTGTTCAAGCGCCATCTAC,1.18
3,GATGATTGTTCTCCCAGCTGATGAATTCTGACCCTCGAGTAAACAAATTTTCCTAATCTTTCTGTTCAAGCGCCATCTAC,0.389
4,GATGATTGTTCTCCCAGCTGATGAATTCTATTAATCGAGTAAACAAATTTTCCTAATCTTTCTGTTCAAGCGCCATCTAC,0.561
5,GATGATTGTTCTCCCAGCTGATGAATTGTGGCAATCGAGTAAACAAATTTTCCTAATCTTTCTGTTCAAGCGCCATCTAC,3.16
6,GATGATTGTTCTCCCAGCTGATGAATTGCATCATTCGAGTAAACAAATTTTCCTAATCTTTCTGTTCAAGCGCCATCTAC,5.15
7,GATGATTGTTCTCCCAGCTGATGAATTAGTTATATCGAGTAAACAAATTTTCCTAATCTTTCTGTTCAAGCGCCATCTAC,1.36
8,GATGATTGTTCTCCCAGCTGATGAATTCGGGATCTCGAGTAAACAAATTTTCCTAATCTTTCTGTTCAAGCGCCATCTAC,0.284
9,GATGATTGTTCTCCCAGCTGATGAATTCCCTTGGTCGAGTAAACAAATTTTCCTAATCTTTCTGTTCAAGCGCCATCTAC,0.225
10,GATGATTGTTCTCCCAGCTGATGAATTGATTCAATCGAGTAAACAAATTTTCCTAATCTTTCTGTTCAAGCGCCATCTAC,0.312
11,GATGATTGTTCTCCCAGCTGATGAATTTCTCCATTCGAGTAAACAAATTTTCCTAATCTTTCTGTTCAAGCGCCATCTAC,0.288
12,GATGATTGTTCTCCCAGCTGATGAATTAAGGATTTCGAGTAAACAAATTTTCCTAATCTTTCTGTTCAAGCGCCATCTAC,0.252
13,GATGATTGTTCTCCCAGCTGATGAATTAGCCCGCTCGAGTAAACAAATTTTCCTAATCTTTCTGTTCAAGCGCCATCTAC,0.269
14,GATGATTGTTCTCCCAGCTGATGAATTCGGAAACTCGAGTAAACAAATTTTCCTAATCTTTCTGTTCAAGCGCCATCTAC,0.585
15,GATGATTGTTCTCCCAGCTGATGAATTTCATACATCGAGTAAACAAATTTTCCTAATCTTTCTGTTCAAGCGCCATCTAC,0.449
16,GATGATTGTTCTCCCAGCTGATGAATTCATGTTCTCGAGTAAACAAATTTTCCTAATCTTTCTGTTCAAGCGCCATCTAC,1.06
17,GATGATTGTTCTCCCAGCTGATGAATTCAGAGCATCGAGTAAACAAATTTTCCTAATCTTTCTGTTCAAGCGCCATCTAC,0.65
18,GATGATTGTTCTCCCAGCTGATGAATTAGAATCGTCGAGTAAACAAATTTTCCTAATCTTTCTGTTCAAGCGCCATCTAC,0.402
19,GATGATTGTTCTCCCAGCTGATGAATTTGTACGATCGAGTAAACAAATTTTCCTAATCTTTCTGTTCAAGCGCCATCTAC,0.674
20,GATGATTGTTCTCCCAGCTGATGAATTGCAGTATTCGAGTAAACAAATTTTCCTAATCTTTCTGTTCAAGCGCCATCTAC,1.7
21,GATGATTGTTCTCCCAGCTGATGAATTGAACCATTCGAGTAAACAAATTTTCCTAATCTTTCTGTTCAAGCGCCATCTAC,0.512
